Source: PubChem BioAssay AID1508624 (National Center for Advancing Translational Sciences (NCATS), 2021)
Hit rate of the full screen: of about 48,000 compounds, about 120 (0.25%) were called active. Roughly 4% stayed inconclusive and do not appear here. Calls come from the whole dose curve; as a rule, active = well fitted activation curve with a large enough effect; inconclusive = small, poorly fitted or top-dose-only effect, or another doubt; inactive = no such curve, though single readings can be large or run the other way. The list shows a part of the results.

assay: Primary qHTS for Identification of Small Molecule Activators of Huntingtin-Antisense Promoter Activity; conditions: HEK293 HTT-AS promoter firefly luciferase reporter (activity 0% = vehicle and -100% = no light), 24 h; series mostly up to 57.5 µM; activity change, positive = activation: at the top concentration; note: nearly all actives have a fitted effect of over 55% in size
Method in brief: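 HEK293 Fluc reporter, 2,500 cells/well, 24 h pre-culture; cpds up to 57.5 uM final, 24 h 37 degrees C; Dual-Glo, 10 min RT; normalized vehicle = 0%, zero RLU = -100%.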
Potency is the fitted concentration of half-maximal effect.

Activity change, positive = activation, inactive:
CCOc1ccc(/C=C/c2nc(C#N)c(NCc3ccccc3)o2)cc1 -42.7%
O=C(CCC1N=C2c3ccccc3N=C(SCc3ccc(F)cc3)N2C1=O)NCCc1ccccc1 (stereo not given) -38.3%
COc1ccc(Cl)cc1NC(=O)C(C)Sc1nc2c(c(=O)[nH]1)CCCC2 (stereo not given) -12.7%
CCc1ccc(NC(=O)CN(c2ccc(Cl)cc2)S(=O)(=O)c2ccsc2C(=O)OC)cc1 -32.2%
CCOc1ccc(NC(=O)c2c(NCc3cccc(OC)c3OC)sc3c2CCC3)cc1 -5.92%
Nc1c(C(=O)Nc2ccccc2Cl)c2ccccn2c1C(=O)c1ccccc1 9.08%
O=C1NCN(c2ccccc2)C12CCN(CCCC(c1ccc(F)cc1)c1ccc(F)cc1)CC2 -32.3%
O=C(C1CCCN(S(=O)(=O)c2cccc3nsnc23)C1)N1CCN(c2ccccc2)CC1 (stereo not given) -48.3%
CCOC(=O)N1CCN(C(=O)CN(c2ccccc2F)S(=O)(=O)c2ccc(C)cc2)CC1 -23.3%
Cc1cc(N2CCC(C)CC2)nc2ccc(NC(=O)Cc3c(F)cccc3Cl)cc12 -23.1%
Cc1ccc(Cn2cc(S(=O)(=O)c3cccc(Cl)c3)c(=O)c3cc(F)c(N4CCCCC4)cc32)cc1 7.23%
Cc1cc(C)cc(NC(=O)CSc2nc(=O)n(CCN3CCOCC3)c3c2CCC3)c1 -7.3%
Cc1ccc(Cl)cc1NC(=O)CSc1nccn1C 2.23%
COC(=O)c1c(NC(=O)Cc2coc3cc(C)ccc23)sc2c1CCC2 -5.18%
CCOC(=O)c1noc2nc(C)n(CC(=O)NC(C)CC)c(=O)c12 (stereo not given) 1.26%
O=C(NCc1cccs1)c1ccc2c(c1)N(Cc1cccc(F)c1)C(=O)c1ccccc1S2 -28.8%
Nc1ccccc1NC(=O)c1ccc(CNC(=O)OCc2cccnc2)cc1 5.14%
COc1cccc(CNC(=O)Cn2nc(-c3ccc(Cl)cc3)ccc2=O)c1 -10.4%
Cc1cccc2c1N(Cc1ccccc1OCCC(C)C)C(=O)C2=O -32.3%
CC(=O)c1ccc(NC(=O)c2cc(C)nc3c2c(C)nn3-c2ccc(C)cc2)cc1 -9.69%
COc1ccc(-n2c(=O)c3c(c4cc(OC)ccc4n3C)n(Cc3cccc(C)c3)c2=O)cc1 -12%
COc1ccc2c(c1)c(=O)c(S(=O)(=O)c1ccccc1)cn2CC(=O)Nc1ccc(C)c(Cl)c1 -10.7%
CCC(C(=O)Nc1cccc(-c2nc3cccnc3s2)c1C)c1ccccc1 (stereo not given) 4.46%
COc1ccc(-n2cc(C(=O)NCCc3cc(OC)ccc3OC)c3ccccc3c2=O)cc1 -21.9%
CCOC(=O)c1c(C)[nH]c(C)c1S(=O)(=O)N1CCCC(C(=O)NCc2ccc(N(C)C)cc2)C1 (stereo not given) -3.47%
CC(C)CC(=O)Nc1nnc(S(=O)(=O)N(C)Cc2ccc(Cl)cc2)s1 -2.67%
CC1=C(C(=O)Nc2ccc(C)cc2C)C(c2cccs2)n2nc(SCc3cccc(C)c3)nc2N1 (stereo not given) -10.9%
CNC(=O)CSc1cn(CC(=O)N2CCCCCC2)c2ccccc12 -11%
CCCc1nn2c(=O)cc(COC(=O)c3ccccc3NC(=O)COc3ccccc3)nc2s1 -5.1%
CCOC(=O)c1cc(S(=O)(=O)Nc2cc(F)ccc2C)[nH]n1 -8.23%
COc1ccccc1NC(=O)c1c(NCc2ccc(C)o2)sc2c1CCCCC2 3.52%
CCOC(=O)N1CCc2c(sc3c2C(=O)NC(c2cc(OC)c(OC)c(OC)c2)N3)C1 (stereo not given) -31%
COc1ccc(-c2cc(C(F)(F)F)n3nc(-c4ccccc4)cc3n2)cc1OC -4.57%
CCc1ccc(NC(=O)Cn2c(=O)n(CCC(C)C)c(=O)c3cccnc32)cc1 -22.5%
CC(=O)Nc1nonc1-c1nnc(SCc2ccccc2F)n1C -2.21%
CC(C)(C)C(=O)OCOC(=O)[C@@H]1N2C(=O)[C@@H](NC(=O)[C@H](N)c3ccccc3)[C@H]2SC1(C)C -0.761%
CCc1ccccc1NS(=O)(=O)c1ccc2c(c1)CC(=O)N2 -21%
Cc1ccc(/C=C/c2onc(C)c2S(=O)(=O)N2CCC(C(=O)Nc3ccccc3C(F)(F)F)CC2)cc1 -7.23%
CC(=O)c1ccc(N2CCN(c3ncnc4c3c(-c3ccccc3)cn4-c3ccc(Cl)cc3)CC2)cc1 -9.44%
CCCCSc1nnc2n(-c3ccc(OC)cc3)c(=O)c3c4c(sc3n12)COC(C(C)C)C4 (stereo not given) 20.9%
COc1cc(CN2CCN(S(=O)(=O)c3ccc(NC(C)=O)cc3)CC2)cc(OC)c1OC -2.82%
O=C1N(Cc2ccccc2Cl)c2ccccc2C1(O)c1c[nH]c2ccccc12 (stereo not given) -39.2%
CC1=C(C(=O)OCC2CCCCC2)C(c2ccc(Cl)cc2)CC(=O)N1 (stereo not given) -40.2%
C/C=C(/C(=C/C)c1ccc(OC(C)=O)cc1)c1ccc(OC(C)=O)cc1 -9.71%
CCOC(=O)c1sc2ccccc2c1S(=O)(=O)Nc1ccc(C(C)=O)cc1 7.09%
CC(=O)c1ccc(NS(=O)(=O)c2c(C)nc3scc(C)n3c2=O)cc1 -28.5%
Cc1cccc(Cn2c(=O)n(Cc3ccccc3)c(=O)c3c2c2cc(C)ccc2n3C)c1 -6.53%
CCn1cc(C(=O)NCCc2ccc(OC)c(OC)c2)c(=O)c2cc(S(=O)(=O)N3CCCCCC3)ccc21 -3.56%
CSc1ncc(C(=O)Nc2ccc(C)c(Cl)c2)c(-c2ccccc2)n1 -38.5%
CCc1ccc(N(CC)C(=O)Cn2nc(Cc3cccnc3)c3ccccc3c2=O)cc1 -28.9%
COc1ccccc1NC(=O)c1oc2ccccc2c1NC(=O)COc1cccc(C)c1 -8.7%
COc1ccc(Cl)cc1NC(=O)N(C)CCc1c(C)nn(C)c1C 7.41%
COc1ccc(OC)c(NC(=O)CN2C(=O)CC(C)Sc3ccccc32)c1 (stereo not given) -18.4%
CC(=O)CCC(=O)O -2.27%
CCOc1ccc(NC(=O)CSc2oc(-c3ccc(F)cc3)nc2S(=O)(=O)c2ccc(C)cc2)cc1 -10.7%
O=C(CCOc1ccccc1)N(Cc1cccnc1)c1nc2ccc(Cl)cc2s1 8.97%
Cc1ccc(CN(Cc2ccco2)C(=O)c2oc3cc(Br)ccc3c2C)cc1 -24.5%
O=C(Nc1ccc(Br)cc1F)c1cc(S(=O)(=O)NC2CCCCC2)ccc1F -23.7%
CCOC(=O)c1ccc(NC(=O)CSc2nc3cc4ccccc4cc3[nH]2)cc1 -4.72%
Cc1nc2nc(NC(=O)c3ccc(C(C)(C)C)cc3)[nH]n2c(=O)c1Cc1ccccc1 8.83%
COc1ccc(CNC(=O)Cn2ccc3cc(S(=O)(=O)N4CCCCC4)ccc32)cc1OC -30.3%
Cc1ccc(-n2c(=O)c3c4c(sc3n(Cc3cc(=O)n5ccccc5n3)c2=O)CCC4)cc1C 21%
Cc1ccc(Cl)cc1-n1ncc2c(N3CCN(Cc4ccccc4)CC3)ncnc21 -95.3%
COc1ccc(Cc2cnc(N)nc2N)cc1OC -5.71%
CCOC(=O)c1c(NC(=O)c2ccc(S(=O)(=O)N(C)C3CCCCC3)cc2)sc2c1CCN(C(C)C)C2 -22.1%
Cc1noc(C)c1S(=O)(=O)N(CC(=O)NCCc1ccccc1)c1ccc(C(C)C)cc1 -18.9%
CCOCCCN1C(=O)c2ccccc2CC1(C)C(=O)NC1CCCCC1 (stereo not given) -5.52%
COC(=O)c1ccccc1NC(=O)c1sc2nc(C)cc(C)c2c1NC(=O)c1ccccc1OC 1.35%
COc1ccc(NC(=O)CSc2nc3c(oc4ccccc43)c(=O)n2Cc2ccco2)cc1Cl -45.3%
COc1ccc(CNC(=O)CN2C(=O)CSc3ccc(S(=O)(=O)N4CCC(C)CC4)cc32)cc1 -24.4%
CC1CCN(S(=O)(=O)c2nnc(NC(=O)c3cccc(Cl)c3)s2)CC1 -69.7%
Cc1ccc(CCNc2ncnc3onc(-c4ccc(Cl)cc4)c23)cc1 -21.8%
COc1ccc(-c2nc(S(=O)(=O)c3ccc(Cl)cc3)c(NCc3ccccc3)o2)cc1 7.34%
COc1cc(-c2nc(Cn3nnc(C(=O)Nc4cccc(Cl)c4)c3C)c(C)o2)cc(OC)c1OC 0.129%
COc1ccc(CNC(=O)C2CCC(CNS(=O)(=O)c3ccc4c(c3)CCCC(=O)N4)CC2)cc1 (stereo not given) -17.4%
CCc1cccc(-n2c(=O)c3cccnc3n2CC(=O)Nc2c(C)cc(C)cc2C)c1 -7.82%
COc1cc(S(=O)(=O)NCCc2c(C)[nH]c3ccccc23)c(C)cc1C -19.7%
COc1ccc(N(Cc2cc3cccc(C)c3[nH]c2=O)C(=O)c2cccc(Cl)c2)cc1 -32.1%
COc1ccc2nc(N(Cc3cccnc3)C(=O)Cc3ccccc3)sc2c1 -3.7%
CC(=O)N1CCc2cc(S(=O)(=O)C(C)CC(=O)Nc3ccc(Br)c(C)c3)ccc21 (stereo not given) -11.4%
CN(C)S(=O)(=O)c1ccc(C(=O)NCCSc2c(-c3ccccc3)[nH]c3ccccc23)cc1 -42.6%
CC(=O)Nc1ccc(S(=O)(=O)NC2=NCN(CCO)CN2)cc1 -5.73%
COc1ccc(NC(=O)C2=C(C)Nc3ncnn3C2c2cccn2C)cc1 (stereo not given) -6.54%
Fc1cccc(-c2nnn3c2nc(NC2CCCCC2)c2ccccc23)c1 -18.6%
COc1ccccc1CNC(=O)CN1C(=O)COc2ccc(S(=O)(=O)NC3CCCC3)cc21 -7.79%
Cc1cccc(-n2c(CNC(=O)c3cccc(F)c3)nnc2SCC(=O)Nc2ccccc2F)c1 -16.4%
CC1CCN(CC2CCN(C(=O)Nc3ccc(Br)cc3F)CC2)CC1 -6.64%
CC(C)(C)C1CCc2oc3ccc(NS(=O)(=O)c4ccc(C(=O)O)cc4)cc3c2C1 (stereo not given) -10.6%
COc1ccc(Cn2c(SCC(=O)N(C)Cc3ccccc3)nc3ccccc32)cc1 6.37%
COc1ccc(CCNc2ncnc3c2cnn3-c2cc(Cl)ccc2C)cc1 -36.8%
Cc1ccc(NC(=O)Cn2c(=O)nc(-c3ccccc3)c3ccccc32)cc1F -3.88%
Cc1cccc(-c2noc(-c3ccc(N4CCOCC4)c([N+](=O)[O-])c3)n2)c1 -11.9%
CC1CCN(S(=O)(=O)c2ccc3c(ccc(=O)n3CC(=O)Nc3cccc(F)c3)c2)CC1 -35.7%
O=C(Nc1cnc(N2CCN(c3ccccc3)CC2)c(C(=O)O)c1)c1cccs1 4.22%

Potency, active:
Cc1ccc2oc(-c3ccc(C)c(NC(=O)C(C)(C)Oc4ccc(Cl)cc4)c3)nc2c1 10 µM
